According to PubChem BioAssay AID651820 (National Center for Advancing Translational Sciences (NCATS), 2012):
Out of some 340,000 compounds screened, about 12,000 (3.5%) were called active. The shares of active, inactive and inconclusive entries below differ from those in the screen. Calls come from the whole dose curve; as a rule, active = well fitted inhibition curve with a large enough effect; inconclusive = small, poorly fitted or top-dose-only effect, or another doubt; inactive = no such curve, though single readings can be large or run the other way. Potencies of inconclusive entries are left out as doubtful fits.

assay: qHTS Assay for Inhibitors of Hepatitis C Virus (HCV); conditions: Huh7.5.1 HCVcc-Cre (HCVcc is cell-culture hepatitis C virus) infection, luciferase reporter, 44 h; series mostly up to 41.8 µM
How it was run: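 Luciferase read-out (15 sec integration) after a 15 min room-temperature substrate step quantifies HCVcc-Cre infection. Cells, 1,000 per well, had compound added 4 h post-plating, then virus at ~0.5 moi, and were cultured 44 h.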
Potency is the fitted concentration of half-maximal effect; tags give direction and shape of the fitted curve.

Row | SMILES | Potency
1 | Cc1oc2c(C)c3oc(=O)c(CCC(=O)NCCCn4ccnc4)c(C)c3cc2c1C | active: 10 µM
2 | O=C(NNC(=S)Nc1ccc(Cl)cc1)c1ccccc1OC(F)F | inconclusive [inhibitor, partial curve]
3 | CC1Cc2cc(/C(O)=C3/C(=O)C(=O)N(CCCn4ccnc4)C3c3ccc(F)cc3)ccc2O1 (stereo unspecified) | inactive
4 | CCOC(=O)C1CCCN(c2c(NCC3CCCO3)c(=O)c2=O)C1 (stereo unspecified) | inactive
5 | Cc1ccc(-c2cc(C(=O)Nc3cc(C(=O)O)ccc3C)c3ccccc3n2)cc1 | inconclusive [inhibitor, single point]
6 | COc1ccc(C(CNC(=O)c2cccc(S(=O)(=O)N3CCCc4ccccc43)c2)N(C)C)cc1 (stereo unspecified) | inconclusive [inhibitor, single point]
7 | COc1ccc(C(=O)O/N=C(\N)c2ccccc2)cc1 | inactive
8 | CCN(CC)c1ccc(Nc2nc(Cl)ncc2Br)cc1 | inconclusive [inhibitor, single point]
9 | COC(=O)N1C(=O)[C@@](c2ccccc2)(C2CCCCC2)N1C(=O)OC | inactive
10 | c1ccc(N2CCN(c3nnc(Cc4cccnc4)c4ccccc34)CC2)nc1 | inconclusive [inhibitor, partial curve]
11 | COc1cccc(N2CC(O)=C(c3nc4ccccc4s3)C2=N)c1 | inconclusive [inhibitor, partial curve]
12 | C=C1SC(Nc2c(C)cc(C)cc2C)=NC12CCCCC2 | inactive
13 | C=CCc1cc(Cl)ccc1OCCCNC(C)CC (stereo unspecified) | active: 12.6 µM
14 | CC(=O)c1ccc(NC(=O)CCNC(=O)c2ccc(Cl)cc2)cc1 | inactive
15 | NS(=O)(=O)c1ccc(-c2ccc(C=O)o2)cc1 | inconclusive [inhibitor, single point]
16 | O=C(NCCc1nc2ccccc2[nH]1)c1cc([N+](=O)[O-])cc([N+](=O)[O-])c1 | inactive
17 | CC1(O)CCC2C3CCC4=CC(=O)CCC4(C)C34OC4CC21C (stereo unspecified) | inactive
18 | NC(=O)c1ncn([C@@H]2O[C@H](CNCc3cnc(N4CCOCC4)s3)[C@@H](O)[C@H]2O)n1 | inconclusive [inhibitor, single point]
19 | CC(=O)c1ccc(NC(=O)CNc2cc(S(=O)(=O)N3CCOCC3)ccc2N2CCCC2)cc1 | inconclusive [inhibitor, partial curve]
20 | Cc1ccc(NC(=O)CS(=O)CC(=O)NC23CC4CC(CC(C4)C2)C3)cc1 (stereo unspecified) | inactive
21 | Cc1cc(C)n(-c2nc(NCC(C)O)c3c4c(sc3n2)CCCC4)n1 (stereo unspecified) | active: 5.62 µM
